Measured values taken from the supplement of paper PMC4604168 (melanoma cell lines).
Some of the results follow. Single values are uncertain, as repeats are few or missing.

Key:
Assay in all cases: cell count relative to DMSO control; melanoma cells; higher = more viable cells
Conditions in all cases: library dose: standard library concentration; 72 h
A101D = tested on: A101D
A2058 = tested on: A2058
A375 = tested on: A375
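Note: cells treated in 1,536-well plates, then fixed and DAPI-stained, with nuclei counted from automated high-throughput microscope images.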

| Compound | cell count (A101D) [%] | cell count (A2058) [%] | cell count (A375) [%] |
| --- | --- | --- | --- |
| COc1ccc(C2=N[C@@H](c3ccc(Cl)cc3)[C@@H](c3ccc(Cl)cc3)N2C(=O)N2CCNC(=O)C2)c(OC(C)C)c1 [Nutlin-3] + O=C(O)c1ccc2c(c1)nc(Nc1cccc(Cl)c1)c1ccncc12 [CX4945] (first compound 0.5 µM, partner dose 2 µM) | 64.3 | 85.4 | 62.9 |
| Cn1c(=O)n(-c2ccc(C(C)(C)C#N)cc2)c2c3cc(-c4cnc5ccccc5c4)ccc3ncc21 + Nc1ccn([C@@H]2O[C@H](CO)[C@@H](O)C2(F)F)c(=O)n1 [gemcitabine] (first compound 0.02 µM, partner dose 0.002 µM) | 72.5 | 34.7 | 103 |
| Cc1cn(-c2cc(NC(=O)c3ccc(C)c(Nc4nccc(-c5cccnc5)n4)c3)cc(C(F)(F)F)c2)cn1 [nilotinib] + COc1ccc(C2=N[C@@H](c3ccc(Cl)cc3)[C@@H](c3ccc(Cl)cc3)N2C(=O)N2CCNC(=O)C2)c(OC(C)C)c1 [Nutlin-3] (first compound 1 µM, partner dose 0.5 µM) | 64.7 | 103 | 83.2 |
| Cc1cc(Nc2cc(N3CCN(C)CC3)nc(/C=C/c3ccccc3)n2)n[nH]1 + COCC[n+]1c2c(n(Cc3cnccn3)c1C)C(=O)c1ccccc1C2=O [YM155] (first compound 0.2 µM, partner dose 0.002 µM) | 69.2 | 19.8 | 79.9 |
| COc1ccc(C2=N[C@@H](c3ccc(Cl)cc3)[C@@H](c3ccc(Cl)cc3)N2C(=O)N2CCNC(=O)C2)c(OC(C)C)c1 [Nutlin-3] + Cn1cncc1[C@@](N)(c1ccc(Cl)cc1)c1ccc2c(c1)c(-c1cccc(Cl)c1)cc(=O)n2C [tipifarnib] (first compound 0.5 µM, partner dose 0.05 µM) | 74.7 | 76.8 | 85.3 |
| Cn1c(=O)n(-c2ccc(C(C)(C)C#N)cc2)c2c3cc(-c4cnc5ccccc5c4)ccc3ncc21 + CC1(C)NC(=O)N(c2ccc([N+](=O)[O-])c(C(F)(F)F)c2)C1=O [nilutamide] (first compound 0.02 µM, partner dose 5 µM) | 54.9 | 41.1 | 84.4 |
| COc1ccc(C2=N[C@@H](c3ccc(Cl)cc3)[C@@H](c3ccc(Cl)cc3)N2C(=O)N2CCNC(=O)C2)c(OC(C)C)c1 [Nutlin-3] + OCc1c[nH]c2ccccc12 [Indole-3-carbinol] (first compound 0.5 µM, partner dose 4 µM) | 75.3 | 112 | 91 |
| COc1ccc(C2=N[C@@H](c3ccc(Cl)cc3)[C@@H](c3ccc(Cl)cc3)N2C(=O)N2CCNC(=O)C2)c(OC(C)C)c1 [Nutlin-3] + Clc1ccc(Nc2nnc(Cc3ccncc3)c3ccccc23)cc1 [vatalanib] (first compound 0.5 µM, partner dose 10 µM) | 64.4 | 79.4 | 88.9 |
| Cc1cn(-c2cc(NC(=O)c3ccc(C)c(Nc4nccc(-c5cccnc5)n4)c3)cc(C(F)(F)F)c2)cn1 [nilotinib] + Nc1nc(F)nc2c1ncn2[C@@H]1O[C@H](CO)[C@@H](O)[C@@H]1O [fludarabine] (first compound 1 µM, partner dose 1 µM) | 99.5 | 72.3 | 29.9 |
| Cn1c(=O)n(-c2ccc(C(C)(C)C#N)cc2)c2c3cc(-c4cnc5ccccc5c4)ccc3ncc21 + Cn1cncc1[C@@](N)(c1ccc(Cl)cc1)c1ccc2c(c1)c(-c1cccc(Cl)c1)cc(=O)n2C [tipifarnib] (first compound 0.02 µM, partner dose 0.05 µM) | 62.3 | 49.5 | 80 |
| COc1ccc(C2=N[C@@H](c3ccc(Cl)cc3)[C@@H](c3ccc(Cl)cc3)N2C(=O)N2CCNC(=O)C2)c(OC(C)C)c1 [Nutlin-3] + Cc1nc(Nc2ncc(C(=O)Nc3c(C)cccc3Cl)s2)cc(N2CCN(CCO)CC2)n1 [dasatanib] (first compound 0.5 µM, partner dose 0.02 µM) | 65.3 | 68.2 | 77.2 |
| Cc1cc(Nc2cc(N3CCN(C)CC3)nc(/C=C/c3ccccc3)n2)n[nH]1 + C=CCNC1=C2C[C@@H](C)C[C@H](OC)[C@H](O)[C@@H](C)/C=C(\C)[C@H](OC(N)=O)[C@@H](OC)/C=C\C=C(/C)C(=O)NC(=CC1=O)C2=O [Tanespimycin] (first compound 0.2 µM, partner dose 0.01 µM) | 56.6 | 77.8 | 90.5 |
| CC(C)C[C@H](NC(=O)[C@H](Cc1ccccc1)NC(=O)c1cnccn1)B(O)O [Bortezomib] + COCC[n+]1c2c(n(Cc3cnccn3)c1C)C(=O)c1ccccc1C2=O [YM155] (first compound 0.005 µM, partner dose 0.002 µM) | 27.4 | 11.9 | 84.4 |
| Cc1cn(-c2cc(NC(=O)c3ccc(C)c(Nc4nccc(-c5cccnc5)n4)c3)cc(C(F)(F)F)c2)cn1 [nilotinib] + CS(=O)(=O)CCNCc1ccc(-c2ccc3ncnc(Nc4ccc(OCc5cccc(F)c5)c(Cl)c4)c3c2)o1 [lapatinib] (first compound 1 µM, partner dose 4 µM) | 63.9 | 72.8 | 128 |
| Cc1cn(-c2cc(NC(=O)c3ccc(C)c(Nc4nccc(-c5cccnc5)n4)c3)cc(C(F)(F)F)c2)cn1 [nilotinib] + Cn1cnc2c(F)c(Nc3ccc(Br)cc3Cl)c(C(=O)NOCCO)cc21 [selumetinib] (first compound 1 µM, partner dose 0.075 µM) | 60.6 | 112 | 99.5 |
| Cc1cn(-c2cc(NC(=O)c3ccc(C)c(Nc4nccc(-c5cccnc5)n4)c3)cc(C(F)(F)F)c2)cn1 [nilotinib] + Cn1c(=O)n(-c2ccc(C(C)(C)C#N)cc2)c2c3cc(-c4cnc5ccccc5c4)ccc3ncc21 [NVP-BEZ235] (first compound 1 µM, partner dose 0.02 µM) | 81.2 | 74.1 | 81.8 |
| Cn1c(=O)n(-c2ccc(C(C)(C)C#N)cc2)c2c3cc(-c4cnc5ccccc5c4)ccc3ncc21 + NCC(=O)Nc1ccc(-n2nc(C(F)(F)F)cc2-c2ccc3c(ccc4ccccc43)c2)cc1 [OSU03012] (first compound 0.02 µM, partner dose 5 µM) | 63.7 | 56.1 | 39.1 |
| COc1ccc(C2=N[C@@H](c3ccc(Cl)cc3)[C@@H](c3ccc(Cl)cc3)N2C(=O)N2CCNC(=O)C2)c(OC(C)C)c1 [Nutlin-3] + O=C(Nc1cccc(Cl)c1)Nc1ncc(CCNc2ncnc3ccsc23)s1 [SNS314] (first compound 0.5 µM, partner dose 0.004 µM) | 78.9 | 95.8 | 81.2 |
| Cn1c(=O)n(-c2ccc(C(C)(C)C#N)cc2)c2c3cc(-c4cnc5ccccc5c4)ccc3ncc21 + Nc1nc(F)nc2c1ncn2[C@@H]1O[C@H](CO)[C@@H](O)[C@@H]1O [fludarabine] (first compound 0.02 µM, partner dose 1 µM) | 76.8 | 66.3 | 32.8 |
| CC(C)C[C@H](NC(=O)[C@H](Cc1ccccc1)NC(=O)c1cnccn1)B(O)O [Bortezomib] + NC(=O)Nc1cc(-c2cccc(F)c2)sc1C(=O)N[C@H]1CCCNC1 [AZD7762] (first compound 0.005 µM, partner dose 0.1 µM) | 26.6 | 16.6 | 64.1 |
| COc1ccc(C2=N[C@@H](c3ccc(Cl)cc3)[C@@H](c3ccc(Cl)cc3)N2C(=O)N2CCNC(=O)C2)c(OC(C)C)c1 [Nutlin-3] + CS(=O)(=O)c1ccc(C(=O)Nc2ccc(Cl)c(-c3ccccn3)c2)c(Cl)c1 [vismodegib] (first compound 0.5 µM, partner dose 5 µM) | 82.2 | 116 | 98.8 |
| COc1ccc(C2=N[C@@H](c3ccc(Cl)cc3)[C@@H](c3ccc(Cl)cc3)N2C(=O)N2CCNC(=O)C2)c(OC(C)C)c1 [Nutlin-3] + CN(C)S(=O)(=O)c1ccc2c(c1)/C(=C/c1cc3c([nH]1)CCCC3)C(=O)N2 [SU6656] (first compound 0.5 µM, partner dose 2 µM) | 71 | 111 | 122 |
| CC(C)C[C@H](NC(=O)[C@H](Cc1ccccc1)NC(=O)c1cnccn1)B(O)O [Bortezomib] + Cc1ccc(NC(=O)c2cccc(N(C)C)c2)cc1NC(=O)c1ccc(O)cc1 [ZM336372] (first compound 0.005 µM, partner dose 10 µM) | 4.86 | 10.2 | 70.9 |
| Cc1cc(Nc2cc(N3CCN(C)CC3)nc(/C=C/c3ccccc3)n2)n[nH]1 + Clc1ccc(Nc2nnc(Cc3ccncc3)c3ccccc23)cc1 [vatalanib] (first compound 0.2 µM, partner dose 10 µM) | 86.1 | 76.2 | 96.3 |
| Cc1cn(-c2cc(NC(=O)c3ccc(C)c(Nc4nccc(-c5cccnc5)n4)c3)cc(C(F)(F)F)c2)cn1 [nilotinib] + CN(c1ncccc1CNc1nc(Nc2ccc3c(c2)CC(=O)N3)ncc1C(F)(F)F)S(C)(=O)=O [PF562271] (first compound 1 µM, partner dose 0.4 µM) | 98.8 | 74.4 | 88.9 |
| Cc1cc(Nc2cc(N3CCN(C)CC3)nc(/C=C/c3ccccc3)n2)n[nH]1 + CC1(C)NC(=O)N(c2ccc([N+](=O)[O-])c(C(F)(F)F)c2)C1=O [nilutamide] (first compound 0.2 µM, partner dose 5 µM) | 78.6 | 80.2 | 75.7 |
